The record followed here is the antibiotic and cytotoxicity screens of Wong et al. (2023).

This is one part of the list.

This test concerns S. aureus RN4220. Put plainly: growth inhibition call (relative growth <= 0.2). Particulars: 50 µM.
`C[C@@H]1CCCCO[C@H](CN(C)S(=O)(=O)c2ccccc2)[C@H](C)CN([C@@H](C)CO)C(=O)c2cc(NS(=O)(=O)c3ccc(Cl)cc3)ccc2O1`: the growth inhibition call was “inactive”.
As for `C[C@H]1CN([C@@H](C)CO)C(=O)Cc2cc(NC(=O)CCCCCC(=O)Nc3ccccc3N)ccc2O[C@@H]1CN(C)C(=O)Nc1ccccc1`, the growth inhibition call is “inactive”.
`C[C@@H]1CN([C@H](C)CO)S(=O)(=O)c2ccc(C#CC3CC3)cc2O[C@H]1CN(C)C(=O)Cc1ccncc1`: the growth inhibition call was “inactive”.
On to `C[C@@H]1CN([C@@H](C)CO)C(=O)c2cccc(NC(=O)c3ccc(-c4nccs4)cc3)c2O[C@H]1CN(C)Cc1ccc(C(F)(F)F)cc1`, for which the growth inhibition call was “inactive”.
Take `O=C(C[C@H]1CC[C@H]2NC[C@@H](O)COC[C@@H]2O1)NCCN1CCCC1`: the growth inhibition call is “inactive”.
In the case of `O=C(C[C@@H]1CC[C@@H]2[C@H](COC[C@@H](O)CN2C(=O)c2cccnc2)O1)NCc1ccc(-c2ccccc2)cc1`, the growth inhibition call was “inactive”.
On to `CCOC(=O)[C@H]1[C@@H]2C=C[C@]3(O2)[C@H](C(=O)NCc2ccccc2)N(Cc2cc(OC)cc(OC)c2)C(=O)[C@@H]13`, for which the growth inhibition call is “inactive”.
Turning to `COc1cccc2c1C(=O)c1c(O)c3c(c(O)c1C2=O)C[C@@](O)(C(C)=O)C[C@@H]3O[C@H]1C[C@H](N)[C@H](O)[C@H](C)O1`, the growth inhibition call is “active”.
The value for `CC(C)N(C[C@H]1O[C@@H](n2cnc3c(N)ncnc32)[C@H](O)[C@@H]1O)[C@H]1C[C@@H](CCc2nc3ccc(C(C)(C)C)cc3[nH]2)C1` was “inactive”.
Consider `OC[C@H]1O[C@@](CO)(O[C@@H]2O[C@H](CO)[C@@H](O)[C@H](O)[C@H]2O)[C@@H](O[C@@H]2O[C@H](CO)[C@@H](O)[C@H](O)[C@H]2O)[C@@H]1O`, for which the growth inhibition call was “inactive”.
As for `C[C@@H]1CN([C@@H](C)CO)C(=O)c2cc(NC(=O)NC3CCCCC3)ccc2O[C@@H](C)CCCCO[C@@H]1CN(C)Cc1ccncc1`, the growth inhibition call is “inactive”.
